# The list shows a part of the results. These are further read-outs of the screen, such as a control signal, another cell line or another target. No call is given for them.
# Tests used:
# Assay in all cases: Primary Screen for Target Class Profiling of Small Molecule Inhibitors of Methyltransferases
# [1] = molecular target: Glycine N-methyltransferase (Homo sapiens) (UniProt Q14749); conditions: purified enzyme, MTase-Glo SAH luminescence; measured here: GNMT inhibition; at 40 µM; stronger effect = lower value
# Method in brief: (§1)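 Each enzyme was assayed with SAM and its substrate. SAH formation detected by MTase-Glo luminescence; single-point 40 uM screen[…].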
# [2] = molecular target: Guanidinoacetate N-methyltransferase (Homo sapiens) (UniProt Q14353); conditions: purified enzyme, MTase-Glo SAH luminescence; measured here: GAMT inhibition; at 40 µM; stronger effect = lower value
# Method in brief: as §1
# [3] = molecular target: Histamine N-methyltransferase (Homo sapiens) (UniProt P50135); conditions: purified enzyme, MTase-Glo SAH luminescence; measured here: HNMT inhibition; at 40 µM; stronger effect = lower value
# Method in brief: as §1
# [4] = molecular target: Nicotinamide N-methyltransferase (Homo sapiens) (UniProt P40261); conditions: purified enzyme, MTase-Glo SAH luminescence; measured here: NNMT inhibition; at 40 µM; stronger effect = lower value
# Method in brief: as §1
# [5] = molecular target: Phenylethanolamine N-methyltransferase (Homo sapiens) (UniProt P11086); conditions: purified enzyme, MTase-Glo SAH luminescence; measured here: PNMT inhibition; at 40 µM; stronger effect = lower value
# Method in brief: as §1
# % is set by controls: 0 for no effect and ±100 for the full control effect.
SMILES,"activity change, negative = inhibition [1] [%]","activity change, negative = inhibition [2] [%]","activity change, negative = inhibition [3] [%]","activity change, negative = inhibition [4] [%]","activity change, negative = inhibition [5] [%]"
CCC(C)C(=O)O[C@H]1C[C@](C)(O)[C@]23OC(C)(C)[C@H](C[C@H](OC(=O)c4ccccc4)[C@]2(COC(C)=O)[C@H]1OC(=O)C(C)CC)[C@H]3OC(C)=O (stereo partly drawn),0,8.8,12.4,-6.06,2.72
Cc1ccc(N2C(=O)c3cc4sccc4n3CC2(C)C(=O)NC2CCCCC2)c(C)c1 (stereo not drawn),2.02,5.23,2.46,8.64,0.524
CC1CCCCC1NC(=O)C1c2cccn2CC(=O)N1c1ccc(Cc2ccncc2)cc1 (stereo not drawn),1.16,0.87,7.08,5.53,2.89
O=C(O)C[C@@H]1CCN(C(=O)c2ccc(F)cc2)C[C@@H]1CCN1CCN(c2ccc(F)cc2)CC1,-6,-3.82,-1.01,-6.44,-17
COC(=O)c1ncn2c1C(=O)N(Cc1ccc(N(C)C)cc1)C(C)(C(=O)NC1CCCCC1)C2 (stereo not drawn),3.21,0,7.75,15,4.14
CC1(C(=O)NC2CCCCCCC2)Cn2c(cc3sccc32)C(=O)N1c1ccc(Cl)cc1 (stereo not drawn),0.26,3.31,7.49,4.45,-1.47
CCOc1ccc(CCN2C(=O)c3cc(C(=O)OC)nn3CC2(C)C(=O)NC2CCCC2)cc1 (stereo not drawn),5.55,0.524,11.5,12.9,5.1
COc1ccc(OC)c(S(=O)(=O)N2CC(N(C3CCOCC3)S(C)(=O)=O)C2)c1,-0.947,-5.65,2.59,-8.9,11.5
O=C(c1ccc2c(=O)nc3c(-c4cccc(F)c4)n[nH]n3c2c1)N1CCN(c2ccccc2F)CC1,2.13,6.48,1.57,2.9,-0.443
O=C(Nc1ccccc1)c1cnc2c(c1)N(C(=O)Cc1ccc(O)cc1)CCC2,-6.97,-1.74,-89.1,-11,-5.02
CC1(C)CCC[C@@]2(C)[C@H]1[C@H](O)C=C(CO)[C@]2(O)CO,4.28,9.18,10.8,-6.28,2.7
CCCc1ccc2oc(C(=O)N(C)CCC3CCCCO3)c(C)c2c1 (stereo not drawn),-9.11,-13.1,-5.34,-16.9,-14.2
CCOCC(=O)N[C@@H]1CN(S(C)(=O)=O)C[C@H]1CN(C)C,-1.67,-6.86,1.94,-2.41,2.98
Cc1nc(C)c(C(=O)N2Cc3ccccc3C(O)C2)s1 (stereo not drawn),-5.96,-11.7,-4.56,-6.12,-9.72
COc1ccc(OC)c2c1cc1n2CC(C)(C(=O)NC2CCCCC2C)N(Cc2cccs2)C1=O (stereo not drawn),0.195,0,4.65,-1.7,1.87
CCCCS(=O)(=O)Nc1ncnc(OCCOc2ncc(Br)cn2)c1-c1ccc(Br)cc1,-7.45,-2.71,9.57,-14.8,0.444
O=C(CC1CCCC1)N1C[C@@H](CO)[C@@H]2Oc3ccc(Cl)cc3[C@@H]21,-3.69,-3.26,-2.05,-14.2,-2.79
Cn1cc(C2=C(c3coc4ccccc34)C(=O)NC2=O)c2cc(Br)ccc21,-5.39,-23,-7.25,-44.1,-8.09
CC(C)CCN1C(=O)c2cc3occc3n2CC1(C)C(=O)NC1CCCCC1 (stereo not drawn),-1.06,4.99,2.71,6.14,-2.65
CC1(C(=O)NC2CCCCCC2)Cn2nc(-c3ccco3)cc2C(=O)N1Cc1ccc(F)cc1 (stereo not drawn),-11,1.55,-8.94,-10.1,-5.64
O=C(NC1CCCCC1)C1CN(C(=O)c2ccc(Br)o2)CC12CCOCC2 (stereo not drawn),-0.221,-0.207,1.83,-3.12,0.844
COC(=O)c1ncn2c1C(=O)N(Cc1ccc(OC(C)C)cc1)C(C)(C(=O)NC1CCCCC1)C2 (stereo not drawn),6.07,0,7.03,10.4,6.72
Cc1cc(N2CCN([C@@H]3CN[C@H](C(=O)N4CCSC4)C3)CC2)n(-c2ccccc2)n1,-47.9,-26.2,-11.8,-40.4,-10.3
COc1ccccc1CNC(=O)c1ccc2c(c1)N(C)C1CCCCN1C2=O (stereo not drawn),-15.1,-2.93,-12.6,-3.6,-3.72
CC1(C(=O)NC2CCCCCC2)Cn2c(cc3occc32)C(=O)N1C1CCCCCC1 (stereo not drawn),-9.69,-1.47,-7.92,-10.7,-10.5
C=C1C(=O)O[C@H]2C1CCC(C)=C1C(=O)C=C(C)[C@@]12O (stereo partly drawn),0.044,-7.95,5.15,-15.6,-6.63
COC1CCCC/C(C)=C/C2C=C(C)C(C)C3C(CC(C)C)NC(=O)C23C(=O)C1 (stereo not drawn),0,9.9,13,-4.2,3.2
Cc1ccc(NC(=O)N2CCn3c(C)ccc3C2C(C)C)c(Cl)c1 (stereo not drawn),-2.44,3.85,-10.9,-16.8,-1.62
COc1ccnc(CS(=O)c2nc3ccc(OC(F)F)cc3[nH]2)c1OC (stereo not drawn),–,-6.63,–,-19.4,-1.42
CN(C)[C@H]1CCN(C(=O)c2ccc(SCCO)cc2)C[C@H]1CCC(=O)O,-5.17,-8.86,-4.36,-11.3,12.7
